Reference: the RNAGym collection of RNA variant scans (doi:10.1073/pnas.2313332121)
This sample is rich in variants without activity.

B1: TPR 5TU (parent)
chain: GGAUCUUCUCGAUCUAACAAAAAAGACAAAUCUGCCACAAAGCUUGAGAGCAUCUUCGGAUGCAGAGGCGGCAGCCUUCGGUGGCGCGAUAGCGCCAACGUUCUCAACUAUGACACGCAAAACGCGUGCUCCGUUGAAUGGAGUUUAUCAUG

Variants of: B1
Experiment: polymerase ribozyme fitness, log enrichment relative to wild type (log ratio); higher = more active; in vitro selection for triplet polymerase activity
How it was run: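 Mutant libraries were PCR-built and transcribed for each subunit of a heterodimeric triplet polymerase ribozyme and selected for one round in triplicate at −7 °C, frozen, before gel excision of extended constructs and streptavidin-bead capture. Input and output libraries were Illumina-sequenced, keeping genotypes with ≥10 input reads and ≥1 read per output. Fitness is a logarithmic ratio of genotype to wild-type enrichment, in base 2, using inverse-variance-weighted replicate averages.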

| Variant | polymerase ribozyme fitness (log ratio) |
| --- | --- |
| A22U G42A U55A C85U G124C | ≤ -4.2 |
| A23C G34U G59C G70C C87U G117A C131U | ≤ -4.2 |
| A22G C85U C95G U135G | -3.76 |
| A21U A22C G42C C85G U102G | ≤ -4.2 |
| A21U C99U C116U C125U | -1.64 |
| A22G U45A C87G C93G U102C A119G A121G G133U G143C U151G G152A | ≤ -4.2 |
| A21U G59C G126U | 0.721 |
| A21U A24C U31G A49C C51U U56A G84A G88C A89G A119G G124U | ≤ -4.2 |
| A21U A29G G68U A122G | ≤ -4.2 |
| A23G A24C C32G U55A A89C A106G | ≤ -4.2 |
| A22C G141U | 1.81 |
| A21U G42C C75U G86C | ≤ -4.2 |
| A22G A113C | -2.12 |
| A22U G50C C93U C118G | ≤ -4.2 |
| A21G C96G | 0.474 |
| A22C U45A | -2.58 |
| A22U A30U C32G A60C A142U U145G | ≤ -4.2 |
| A23G A24U A52G G83C U148G | ≤ -4.2 |
| A22C A24U G50C G67U U78A C95A A113U | ≤ -4.2 |
| A22U A39U G133C U148G C149A | ≤ -4.2 |
| A23C C87A | ≤ -4.2 |
| A21U A30U G94A C95A G141C U146A A150U | ≤ -4.2 |
| A22U A39U C57U G59A U101G U148C A150C | ≤ -4.2 |
| A22C C36A G133C | ≤ -4.2 |

| Variant | polymerase ribozyme fitness (log ratio) |
| --- | --- |
| A22U G71A G80A G84A G92C A138U | ≤ -4.2 |
| A22G G42A U61A G62A G68A A91U C132G G141A G152C | ≤ -4.2 |
| A22U A39U A41G A52C G83U G94A G152C | -4.02 |
| A22G A23G G50U A52C C57U G59U C96A C99U G143C | ≤ -4.2 |
| A22G C27U A47U U56G C57G U77A C93A G143A | ≤ -4.2 |
| A22U G141A | 2.05 |
| A22U C69U C93A U102G C103G | ≤ -4.2 |
| A22C A24C A26U U56A C93U U134G A142C G152U | ≤ -4.2 |
| A21G U77A A91G | ≤ -4.2 |
| A22C A137G | -2.58 |
| A23C A47C C76A G84U G124A | ≤ -4.2 |
| A22C A47C U61A G83C A142C | ≤ -4.2 |
| A21G U56C G74C U104G A142G | ≤ -4.2 |
| A22U C54U | 0.174 |
| A21U G68A C96U U145G | ≤ -4.2 |
| A21U U56A C76U C93A G100C C114G | ≤ -4.2 |
| A22C G92C | -1.73 |
| A22G C54U G88U U90G A137U U144A | ≤ -4.2 |
| A21G C76G A91C G92A A113C | ≤ -4.2 |
| A21U A41U U111A A121U A142C A150G | ≤ -4.2 |
| A22U U56A G92A | -3.22 |
| A22U U55A C96U | -0.172 |
| A23C C27G A60G A97C G124U | ≤ -4.2 |
| A22G A26C G88U U145G | ≤ -4.2 |

| Variant | polymerase ribozyme fitness (log ratio) |
| --- | --- |
| A21U A40G A60G C96G U146G | -3.99 |
| A22C C35A U55A C57U G86U A119U | ≤ -4.2 |
| A22C A52C G81U | -1.38 |
| A22U G58C G70A G86U U90C A98U A107U C125U | ≤ -4.2 |
| A21U C32G U55A G83U | ≤ -4.2 |
| A21U G50U | 0.281 |
| A22G U45A C63A C96U U146G | ≤ -4.2 |
| A23C A98G U127C | ≤ -4.2 |
| A21G C35A U61A U78C G84A C87G G140U | ≤ -4.2 |
| A22U C87U G141U | 1.15 |
| A22U G67U C72G C96A | ≤ -4.2 |
| A22C U45G C51G G58A G67A C118A U134C | ≤ -4.2 |
| A23C A30U G50A C54A G86A | ≤ -4.2 |
| A21G C57G C87G | ≤ -4.2 |
| A21U C35A A52G A60U A91C | ≤ -4.2 |
| A22U C76G C87G U101G G140C | -4.19 |
| A23C U55A U82C G136U | ≤ -4.2 |
| A21G C35U A66U G67A A91U | ≤ -4.2 |
| A23C A40U C79G U109C | ≤ -4.2 |
| A21U G83U G84U G117U U151G | ≤ -4.2 |
| A21U C79U U101G U102G | ≤ -4.2 |
| A22C A49C A115G | ≤ -4.2 |
| A23C A24C G58A U90G A91G A138G | ≤ -4.2 |
| A23C C87G A91G C99A C103G | ≤ -4.2 |

| Variant | polymerase ribozyme fitness (log ratio) |
| --- | --- |
| A22U C54U U55A | 0.0331 |
| A21U A66G A107U A113C | ≤ -4.2 |
| A22C G84A G136C C149A | ≤ -4.2 |
| A22G A23C U55A G128U | ≤ -4.2 |
| A22U C114A | -3.29 |
| A23C G34U A37U U55A U61A C76G C93G G112U C149G | ≤ -4.2 |
| A22G U33C A64G A73U G88U | ≤ -4.2 |
| A21U G34A C69A C132G | ≤ -4.2 |
| A22C A24G A26U A52G G80A C85G G94U C123U | ≤ -4.2 |
| A22U G126A | 1.07 |
| A22U A89U C118U C131U C149G | ≤ -4.2 |
| A23C C38A C51U U55C A73G G92U C131U A138C | ≤ -4.2 |
| A22U C96G | -0.148 |
| A22G U55G C57U G84U C85A | -0.696 |
| A22U A47U U53G U55A C57U G68A G86C C99U A138C U148G | ≤ -4.2 |
| A22C A37G C76U C85U C116G A122C G143U | ≤ -4.2 |
| A22U A30C G81A C116G | -3.8 |
| A22C A52C U53A G62C G67C C69A A89G C96U A106U C125G U134A | ≤ -4.2 |
| A21U U61G G80A U101A | -2.86 |
| A22U A24U C54G G65U G84A | ≤ -4.2 |
| A22U U56A A64G A122U C123G A150G | ≤ -4.2 |
| A23C A39U C43A U56G G62A C87A C99U C103U | ≤ -4.2 |
| A21G G50A G59A C87A | ≤ -4.2 |
| A21U A49C G58C G59C G94U U101G C129G U139G | ≤ -4.2 |

| Variant | polymerase ribozyme fitness (log ratio) |
| --- | --- |
| A21U A22U A26U G46A C69G G83C A106C C116A G141C | ≤ -4.2 |
| A22C U33C G88A A97C C131G | ≤ -4.2 |
| A23C G50U A91C C95G C105G C108U | ≤ -4.2 |
| A22U C57U G84U G94U G128A U145C | ≤ -4.2 |
| A21G U82A C96A U101G A121U | 0.493 |
| A21U C27A G58U G88U A142C | ≤ -4.2 |
| A22U C93A | -2.34 |
| A22C C38U C69U C85U | -1.31 |
| A22U U44C C96A G100A | ≤ -4.2 |
| A21U C36G C51U U55C G92U U148A | ≤ -4.2 |
| A22G A39U G46U A49U A64G U77A C93A A150G | ≤ -4.2 |
| A21G U44A G68U G83U A106G A115U C118A A119C C123U U144G | ≤ -4.2 |
| A22U G58C G92U G124C | -0.925 |
| A22U A23C A49G U61A G74U A89C U102G | ≤ -4.2 |
| A22C U53G C93A | ≤ -4.2 |
| A22C A41U U61A C99U | ≤ -4.2 |
| A21U A30U U44A C63U G92U C96A U104G A110C | ≤ -4.2 |
| A22C G50A C63A C69G A89G U127G G141U A142U | ≤ -4.2 |
| A21U G59C C69U C93G G100A G124U | ≤ -4.2 |
| A21U A39G G92A | ≤ -4.2 |
| A23C G62C U82C | ≤ -4.2 |
| A21U G25C G59U G141C A150G | ≤ -4.2 |
| A23C G48A C93A C103G G141A | ≤ -4.2 |
| A22C G50U G67C C93G U144C | ≤ -4.2 |

| Variant | polymerase ribozyme fitness (log ratio) |
| --- | --- |
| A22C G88A | ≤ -4.2 |
| A22C A26U U56A G59C C87G U111C | ≤ -4.2 |
| A22C A66G A73G | ≤ -4.2 |
| A22C C87U | -0.775 |
| A21G G81C C87G G92A | ≤ -4.2 |
| A21G C27U C57G C72A C93G | ≤ -4.2 |
| A22C A29U U33C A47C U53G C95U C105A C118U | ≤ -4.2 |
| A22C C43U G68A G80C G88U G92C G124U | ≤ -4.2 |
| A22U U45A C54U A64C U101G | ≤ -4.2 |
| A22U C35G G62C C63U A64C A107C C116G | ≤ -4.2 |
| A21U C35U A49C U134A | ≤ -4.2 |
| A22U C27G C76A G83C C87A C103G C105G C131A U148A | ≤ -4.2 |
| A22C A28C | ≤ -4.2 |
| A22U C69G C75U C93U U101C U127A | ≤ -4.2 |
| A23C U33A A41G U45A C87G C103G | ≤ -4.2 |
| A22G U90G G133C G141C | ≤ -4.2 |
| A22C G25U A28U A47C G58C C93U G94C | ≤ -4.2 |
| A22U A26U C129G G140U | ≤ -4.2 |
| A21U C35U C43U U53A A60U G83C A98G A113G | ≤ -4.2 |
| A23G A37C U44A C57A C87U G88C A119U A147U | ≤ -4.2 |
| A22U A39G A41G C54A C105A U127G | ≤ -4.2 |
| A22U A24U G58C A89U G143C | -2.7 |
| A22U A28U G84U | ≤ -4.2 |
| A22G A30U C36G G83C U146G | ≤ -4.2 |

| Variant | polymerase ribozyme fitness (log ratio) |
| --- | --- |
| A22U U55A C85G | -2.29 |
| A22C C36U G42C A73C C95A | ≤ -4.2 |
| A21U A22U U31A C38U U102G C123G | ≤ -4.2 |
| A21U A24U U44A U53G U78G A97U A137C G141C | ≤ -4.2 |
| A21U U77G U78C G84A | ≤ -4.2 |
| A23C A39C C76A A97G G143C | -3.82 |
| A22U G86A C93G C99A A138C | ≤ -4.2 |
| A22C C54U G84U U104G C114G G133U | ≤ -4.2 |
| A22G U55A A89C | -0.257 |
| A21G G65C C85U | ≤ -4.2 |
| A21U C32G G50A G83A G136A | ≤ -4.2 |
| A23C G25C G34A U45A A60G C72G U90A G92A | ≤ -4.2 |
| A22U U144A | 0.777 |
| A22C C114A | -3.5 |
| A22G G42C C75A A89C G92A U109A C125A | ≤ -4.2 |
| A22G C36G G92A A137G | ≤ -4.2 |
| A21G G50C G84A A89U | ≤ -4.2 |
| A21U U78C G86C U148A | ≤ -4.2 |
| A21G C85U C96U C105U A106C A138G | ≤ -4.2 |
| A22G G59A A60C C85A G94A C105U G126A | -4.1 |
| A22C A28C G83A G141A A147C | ≤ -4.2 |
| A23C U31A C85G | ≤ -4.2 |
| A21U G48A U55A C75U G83C A89G A98U C105U G117A U144C | ≤ -4.2 |
